The supplement of paper PMC8728848
This is one part of the list.

Assays:
Test in all cases: glycan array binding signal (z-score within array); higher = stronger binding
Settings in all cases: glycan notation: IUPAC condensed, linker removed
[1] = molecular target: Neu5Ac(a2-3)Gal(b1-4)GlcNAc(b1-3)[Neu5Ac(a2-3)Gal(b1-4)GlcNAc(b1-6)]GalNAc
How it was run: (§1)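 The binding signal is a Z-score computed within each array and averaged over linkers. Arrays of the same protein sequence at different concentrations or buffers were also averaged together. Data originate from 3228 arrays in the Consortium for Functional Glycomics database, kept only where the protein sequence was available.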

[2] = molecular target: Neu5Ac(a2-3)Gal(b1-4)GlcNAc(b1-6)GalNAc
How it was run: as §1

[3] = molecular target: Neu5Ac(a2-3)Gal(b1-4)GlcNAc(b1-6)[Gal(b1-3)]GalNAc
How it was run: as §1

[4] = molecular target: Neu5Ac(a2-3)Gal(b1-4)GlcNAc(b1-6)[Neu5Ac(a2-3)Gal(b1-3)]GalNAc
How it was run: as §1

[5] = molecular target: Neu5Ac(a2-3)Gal(b1-4)GlcNAc6S
How it was run: as §1

[6] = molecular target: Neu5Ac(a2-3)Gal(b1-4)[Fuc(a1-3)]GlcNAc
How it was run: as §1

[7] = molecular target: Neu5Ac(a2-3)Gal(b1-4)[Fuc(a1-3)]GlcNAc(b1-2)Man
How it was run: as §1

[8] = molecular target: Neu5Ac(a2-3)Gal(b1-4)[Fuc(a1-3)]GlcNAc(b1-3)Gal
How it was run: as §1

[9] = molecular target: Neu5Ac(a2-3)Gal(b1-4)[Fuc(a1-3)]GlcNAc(b1-3)Gal(b1-4)GlcNAc
How it was run: as §1

[10] = molecular target: Neu5Ac(a2-3)Gal(b1-4)[Fuc(a1-3)]GlcNAc(b1-3)Gal(b1-4)[Fuc(a1-3)]GlcNAc(b1-3)Gal(b1-4)[Fuc(a1-3)]GlcNAc
How it was run: as §1

[11] = molecular target: Neu5Ac(a2-3)Gal(b1-4)[Fuc(a1-3)]GlcNAc(b1-3)GalNAc
How it was run: as §1

[12] = molecular target: Neu5Ac(a2-3)Gal(b1-4)[Fuc(a1-3)]GlcNAc(b1-6)[Gal(b1-3)]GalNAc
How it was run: as §1

[13] = molecular target: Neu5Ac(a2-3)Gal(b1-4)[Fuc(a1-3)]GlcNAc(b1-6)[Neu5Ac(a2-3)Gal(b1-3)]GalNAc
How it was run: as §1

[14] = molecular target: Neu5Ac(a2-3)Gal(b1-4)[Fuc(a1-3)]GlcNAc6S
How it was run: as §1

[15] = molecular target: Neu5Ac(a2-3)Gal6S(b1-4)GlcNAc
How it was run: as §1

[16] = molecular target: Neu5Ac(a2-3)Gal6S(b1-4)[Fuc(a1-3)]GlcNAc
How it was run: as §1

[17] = molecular target: Neu5Ac(a2-3)GalNAc
How it was run: as §1

[18] = molecular target: Neu5Ac(a2-3)GalNAc(b1-4)GlcNAc
How it was run: as §1

[19] = molecular target: Neu5Ac(a2-3)[GalNAc(b1-4)]Gal(b1-4)Glc
How it was run: as §1

[20] = molecular target: Neu5Ac(a2-3)[GalNAc(b1-4)]Gal(b1-4)GlcNAc
How it was run: as §1

[21] = molecular target: Neu5Ac(a2-3)[GalNAc(b1-4)]Gal(b1-4)GlcNAc(b1-3)GalNAc
How it was run: as §1

[22] = molecular target: Neu5Ac(a2-3)[Neu5Ac(a2-6)]GalNAc
How it was run: as §1

[23] = molecular target: Neu5Ac(a2-6)Gal
How it was run: as §1

[24] = molecular target: Neu5Ac(a2-6)Gal(b1-3)GlcNAc(b1-3)[Gal(b1-4)GlcNAc(b1-6)]Gal(b1-4)Glc
How it was run: as §1

[25] = molecular target: Neu5Ac(a2-6)Gal(b1-4)Glc
How it was run: as §1

[26] = molecular target: Neu5Ac(a2-6)Gal(b1-4)GlcNAc
How it was run: as §1

[27] = molecular target: Neu5Ac(a2-6)Gal(b1-4)GlcNAc(b1-2)Man
How it was run: as §1

[28] = molecular target: Neu5Ac(a2-6)Gal(b1-4)GlcNAc(b1-2)Man(a1-3)Man(b1-4)GlcNAc(b1-4)GlcNAc
How it was run: as §1

[29] = molecular target: Neu5Ac(a2-6)Gal(b1-4)GlcNAc(b1-2)Man(a1-3)[Gal(b1-4)GlcNAc(b1-2)Man(a1-6)]Man(b1-4)GlcNAc(b1-4)GlcNAc
How it was run: as §1

[30] = molecular target: Neu5Ac(a2-6)Gal(b1-4)GlcNAc(b1-2)Man(a1-3)[GlcNAc(b1-2)Man(a1-6)]Man(b1-4)GlcNAc(b1-4)GlcNAc
How it was run: as §1

[31] = molecular target: Neu5Ac(a2-6)Gal(b1-4)GlcNAc(b1-2)Man(a1-3)[GlcNAc(b1-4)][Neu5Ac(a2-6)Gal(b1-4)GlcNAc(b1-2)Man(a1-6)]Man(b1-4)GlcNAc(b1-4)GlcNAc
How it was run: as §1

[32] = molecular target: Neu5Ac(a2-6)Gal(b1-4)GlcNAc(b1-2)Man(a1-3)[Man(a1-6)]Man(b1-4)GlcNAc(b1-4)GlcNAc
How it was run: as §1

[33] = molecular target: Neu5Ac(a2-6)Gal(b1-4)GlcNAc(b1-2)Man(a1-3)[Neu5Ac(a2-3)Gal(b1-4)GlcNAc(b1-2)Man(a1-6)]Man(b1-4)GlcNAc(b1-4)GlcNAc
How it was run: as §1

[34] = molecular target: Neu5Ac(a2-6)Gal(b1-4)GlcNAc(b1-2)Man(a1-3)[Neu5Ac(a2-6)Gal(b1-4)GlcNAc(b1-2)Man(a1-6)]Man(b1-4)GlcNAc(b1-4)GlcNAc
How it was run: as §1

[35] = molecular target: Neu5Ac(a2-6)Gal(b1-4)GlcNAc(b1-2)Man(a1-3)[Neu5Ac(a2-6)Gal(b1-4)GlcNAc(b1-2)Man(a1-6)]Man(b1-4)GlcNAc(b1-4)[Fuc(a1-6)]GlcNAc
How it was run: as §1

[36] = molecular target: Neu5Ac(a2-6)Gal(b1-4)GlcNAc(b1-2)Man(a1-6)Man(b1-4)GlcNAc(b1-4)GlcNAc
How it was run: as §1

[37] = molecular target: Neu5Ac(a2-6)Gal(b1-4)GlcNAc(b1-2)Man(a1-6)[Gal(b1-4)GlcNAc(b1-2)Man(a1-3)]Man(b1-4)GlcNAc(b1-4)GlcNAc
How it was run: as §1

[38] = molecular target: Neu5Ac(a2-6)Gal(b1-4)GlcNAc(b1-2)Man(a1-6)[GlcNAc(b1-2)Man(a1-3)]Man(b1-4)GlcNAc(b1-4)GlcNAc
How it was run: as §1

[39] = molecular target: Neu5Ac(a2-6)Gal(b1-4)GlcNAc(b1-2)Man(a1-6)[Man(a1-3)]Man(b1-4)GlcNAc(b1-4)GlcNAc
How it was run: as §1

[40] = molecular target: Neu5Ac(a2-6)Gal(b1-4)GlcNAc(b1-2)[Neu5Ac(a2-6)Gal(b1-4)GlcNAc(b1-4)]Man(a1-3)[GlcNAc(b1-4)][Neu5Ac(a2-6)Gal(b1-4)GlcNAc(b1-2)[Neu5Ac(a2-6)Gal(b1-4)GlcNAc(b1-6)]Man(a1-6)]Man(b1-4)GlcNAc(b1-4)GlcNAc
How it was run: as §1

[41] = molecular target: Neu5Ac(a2-6)Gal(b1-4)GlcNAc(b1-2)[Neu5Ac(a2-6)Gal(b1-4)GlcNAc(b1-4)]Man(a1-3)[GlcNAc(b1-4)][Neu5Ac(a2-6)Gal(b1-4)GlcNAc(b1-4)Man(a1-6)]Man(b1-4)GlcNAc(b1-4)GlcNAc
How it was run: as §1

[42] = molecular target: Neu5Ac(a2-6)Gal(b1-4)GlcNAc(b1-2)[Neu5Ac(a2-6)Gal(b1-4)GlcNAc(b1-6)]Man(a1-6)[Neu5Ac(a2-6)Gal(b1-4)GlcNAc(b1-2)Man(a1-3)][GlcNAc(b1-4)]Man(b1-4)GlcNAc(b1-4)GlcNAc
How it was run: as §1

[43] = molecular target: Neu5Ac(a2-6)Gal(b1-4)GlcNAc(b1-3)Gal(b1-3)GlcNAc
How it was run: as §1

[44] = molecular target: Neu5Ac(a2-6)Gal(b1-4)GlcNAc(b1-3)Gal(b1-4)GlcNAc
How it was run: as §1

[45] = molecular target: Neu5Ac(a2-6)Gal(b1-4)GlcNAc(b1-3)Gal(b1-4)GlcNAc(b1-2)Man(a1-3)[Neu5Ac(a2-6)Gal(b1-4)GlcNAc(b1-3)Gal(b1-4)GlcNAc(b1-2)Man(a1-6)]GalNAc
How it was run: as §1

[46] = molecular target: Neu5Ac(a2-6)Gal(b1-4)GlcNAc(b1-3)Gal(b1-4)GlcNAc(b1-3)Gal(b1-4)GlcNAc
How it was run: as §1

B1: HA-11100 (Pseudomonas aeruginosa), Q02G51_PSEAB (protein)
chain: QFNPNEIKISQQGKTTLIDQSTQRAIINWKGFDVSADEAVRFNQPGVTSSTLNRVTAGQESVIAGRISAPGQVIIYNSNGVVFSGSAKVDVGSLITTTANISDEHFRQGKLIFDQPGNPDARIVNDGSISVAEKGLAAFVAPSVANNGVINARLGTVAMAAGNAATIDLYG
[1]
  glycan array binding signal (z-score): -0.131
[2]
  glycan array binding signal (z-score): -0.139
[3]
  glycan array binding signal (z-score): -0.184
[4]
  glycan array binding signal (z-score): -0.222
[5]
  glycan array binding signal (z-score): -0.016
[6]
  glycan array binding signal (z-score): -0.324
[7]
  glycan array binding signal (z-score): -0.346
[8]
  glycan array binding signal (z-score): -0.369
[9]
  glycan array binding signal (z-score): 0.057
[10]
  glycan array binding signal (z-score): -0.579
[11]
  glycan array binding signal (z-score): 0.548
[12]
  glycan array binding signal (z-score): 4.78
[13]
  glycan array binding signal (z-score): -0.435
[14]
  glycan array binding signal (z-score): -0.194
[15]
  glycan array binding signal (z-score): -0.049
[16]
  glycan array binding signal (z-score): -0.133
[17]
  glycan array binding signal (z-score): -0.038
[18]
  glycan array binding signal (z-score): -0.519
[19]
  glycan array binding signal (z-score): 0.33
[20]
  glycan array binding signal (z-score): -0.189
[21]
  glycan array binding signal (z-score): -0.169
[22]
  glycan array binding signal (z-score): -0.339
[23]
  glycan array binding signal (z-score): -0.292
[24]
  glycan array binding signal (z-score): 0.023
[25]
  glycan array binding signal (z-score): -0.194
[26]
  glycan array binding signal (z-score): -0.363
[27]
  glycan array binding signal (z-score): 0.137
[28]
  glycan array binding signal (z-score): -0.454
[29]
  glycan array binding signal (z-score): -0.449
[30]
  glycan array binding signal (z-score): -0.487
[31]
  glycan array binding signal (z-score): 0.281
[32]
  glycan array binding signal (z-score): -0.097
[33]
  glycan array binding signal (z-score): -0.355
[34]
  glycan array binding signal (z-score): -0.199
[35]
  glycan array binding signal (z-score): 0.278
[36]
  glycan array binding signal (z-score): 0.04
[37]
  glycan array binding signal (z-score): -0.565
[38]
  glycan array binding signal (z-score): -0.352
[39]
  glycan array binding signal (z-score): -0.488
[40]
  glycan array binding signal (z-score): -0.55
[41]
  glycan array binding signal (z-score): 0.066
[42]
  glycan array binding signal (z-score): -0.281
[43]
  glycan array binding signal (z-score): -0.469
[44]
  glycan array binding signal (z-score): -0.044
[45]
  glycan array binding signal (z-score): -0.393
[46]
  glycan array binding signal (z-score): -0.526
